In US20200347115A1 (Hoffmann-La Roche, published 2020):

Target: T1, human 4-1BB (CD137) (human, UniProt Q07011 24-255)
T1 construct: whole, on cells; also called hu4-1BB
Test: flow cytometry on anti-CD3/anti-CD28 pre-activated human PBMCs

| Binder | binding result |
| --- | --- |
| CD19 (2B11)-4-1BB ligand (71-248) contorsbody P1AA1258 (Fc fusion, Human IgG1 Fc knob-into-hole with P329G, L234A, L235A; also called CD19-4-1BBL contorsbody P1AA1258) chain 1: REGPELSPDDPAGLLDLRQGMFAQLVAQNVLLIDGPLSWYSDPGLAGVSLTGGLSYKEDTKELVVAKAGVYYVFFQLELRRVVAGEGSGSVSLALHLQPLRSAAGAAALALTVDLPPASSEARNSAFGFQGRLLHLSAGQRLGVHLHTEARARHAWQLTQGATVLGLFRVTPEIPAGLGGGGSGGGGSDKTHTCPPCPAPEAAGGPSVFLFPPKPKDTLMISRTPEVTCVVVDVSHEDPEVKFNWYVDGVEVHNAKTKPREEQYNSTYRVVSVLTVLHQDWLNGKEYKCKVSNKALGAPIEKTISKAKGQPREPQVCTLPPSRDELTKNQVSLSCAVKGFYPSDIAVEWESNGQPENNYKTTPPVLDSDGSFFLVSKLTVDKSRWQQGNVFSCSVMHEALHNHYTQKSLSLSPGGGGGSGGGGSSGGGGSREGPELSPDDPAGLLDLRQGMFAQLVAQNVLLIDGPLSWYSDPGLAGVSLTGGLSYKEDTKELVVAKAGVYYVFFQLELRRVVAGEGSGSVSLALHLQPLRSAAGAAALALTVDLPPASSEARNSAFGFQGRLLHLSAGQRLGVHLHTEARARHAWQLTQGATVLGLFRVTPEIPAGL chain 2: QVQLVQSGAEVKKPGASVKVSCKASGYTFTDYIMHWVRQAPGQGLEWMGYINPYNDGSKYTEKFQGRVTMTSDTSISTAYMELSRLRSDDTAVYYCARGTYYYGPQLFDYWGQGTTVTVSSASTKGPSVFPLAPSSKSTSGGTAALGCLVKDYFPEPVTVSWNSGALTSGVHTFPAVLQSSGLYSLSSVVTVPSSSLGTQTYICNVNHKPSNTKVDKKV[omitted - human IgG1 Fc with changes]GGGGSGGGGSREGPELSPDDPAGLLDLRQGMFAQLVAQNVLLIDGPLSWYSDPGLAGVSLTGGLSYKEDTKELVVAKAGVYYVFFQLELRRVVAGEGSGSVSLALHLQPLRSAAGAAALALTVDLPPASSEARNSAFGFQGRLLHLSAGQRLGVHLHTEARARHAWQLTQGATVLGLFRVTPEIPAGL light: DIVMTQTPLSLSVTPGQPASISCKSSQSLETSTGTTYLNWYLQKPGQSPQLLIYRVSKRFSGVPDRFSGSGSGTDFTLKISRVEAEDVGVYYCLQLLEDPYTFGQGTKLEIKRTVAAPSVFIFPPSDEQLKSGTASVVCLLNNFYPREAKVQWKVDNALQSGNSQESVTEQDSKDSTYSLSSTLTLSKADYEKHKVYACEVTHQGLSSPVTKSFNRGEC | binds |
| CD19 (2B11)-4-1BB ligand (71-248) contorsbody P1AA0776 (Fc fusion, Human IgG1 Fc knob-into-hole with P329G, L234A, L235A; also called P1AA10776; CD19-4-1BBL contorsbody P1AA0776) REGPELSPDDPAGLLDLRQGMFAQLVAQNVLLIDGPLSWYSDPGLAGVSLTGGLSYKEDTKELVVAKAGVYYVFFQLELRRVVAGEGSGSVSLALHLQPLRSAAGAAALALTVDLPPASSEARNSAFGFQGRLLHLSAGQRLGVHLHTEARARHAWQLTQGATVLGLFRVTPEIPAGLGGGGSGGGGSDKTHTCPPCPAPEAAGGPSVFLFPPKPKDTLMISRTPEVTCVVVDVSHEDPEVKFNWYVDGVEVHNAKTKPREEQYNSTYRVVSVLTVLHQDWLNGKEYKCKVSNKALGAPIEKTISKAKGQPREPQVCTLPPSRDELTKNQVSLSCAVKGFYPSDIAVEWESNGQPENNYKTTPPVLDSDGSFFLVSKLTVDKSRWQQGNVFSCSVMHEALHNHYTQKSLSLSPGGGGGSGGGGSREGPELSPDDPAGLLDLRQGMFAQLVAQNVLLIDGPLSWYSDPGLAGVSLTGGLSYKEDTKELVVAKAGVYYVFFQLELRRVVAGEGSGSVSLALHLQPLRSAAGAAALALTVDLPPASSEARNSAFGFQGRLLHLSAGQRLGVHLHTEARARHAWQLTQGATVLGLFRVTPEIPAGLGGGGSGGGGSREGPELSPDDPAGLLDLRQGMFAQLVAQNVLLIDGPLSWYSDPGLAGVSLTGGLSYKEDTKELVVAKAGVYYVFFQLELRRVVAGEGSGSVSLALHLQPLRSAAGAAALALTVDLPPASSEARNSAFGFQGRLLHLSAGQRLGVHLHTEARARHAWQLTQGATVLGLFRVTPEIPAGL heavy: QVQLVQSGAEVKKPGASVKVSCKASGYTFTDYIMHWVRQAPGQGLEWMGYINPYNDGSKYTEKFQGRVTMTSDTSISTAYMELSRLRSDDTAVYYCARGTYYYGPQLFDYWGQGTTVTVSSASTKGPSVFPLAPSSKSTSGGTAALGCLVKDYFPEPVTVSWNSGALTSGVHTFPAVLQSSGLYSLSSVVTVPSSSLGTQTYICNVNHKPSNTKVDKKV[omitted - human IgG1 Fc with changes] light: DIVMTQTPLSLSVTPGQPASISCKSSQSLETSTGTTYLNWYLQKPGQSPQLLIYRVSKRFSGVPDRFSGSGSGTDFTLKISRVEAEDVGVYYCLQLLEDPYTFGQGTKLEIKRTVAAPSVFIFPPSDEQLKSGTASVVCLLNNFYPREAKVQWKVDNALQSGNSQESVTEQDSKDSTYSLSSTLTLSKADYEKHKVYACEVTHQGLSSPVTKSFNRGEC | binds |
